# Hit rate of the full screen: of about 280,000 compounds, about 820 (0.29%) were called active. Inconclusive means that the source gave no clear call. Such entries were picked first, then a sample of the others. The call rests on the fitted dose curve; in most records, active means well fitted curve in either direction with a large enough effect; inconclusive means small, poorly fitted or top-dose-only effect; inactive means flat fitted curve, though single readings scatter. Potencies of inconclusive entries are left out as doubtful fits.
# Assay: Total Fluorescence Counterscreen for Inhibitors of the Interaction of Thyroid Hormone Receptor and Steroid Receptor Coregulator 2
# Settings: TRb/SRC2 Texas Red total fluorescence interference; series mostly up to 106 µM; fluorescence change, negative = quenching: at the top concentration
# Procedure, shortened: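 Human TRb ligand-binding domain at 0.6 uM with 20 nM Texas Red SRC2 peptide in Tris buffer containing 1 uM T3 and 5% DMSO, incubated with compound 5 h at ambient temperature. Total fluorescence (555/632 nm) calculated as parallel + 2 × perpendicular.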
# On the % scale 0 is the no-effect control and ±100 the full control effect; potency means the concentration at half of the fitted maximal effect; tags describe the fitted curve by direction and shape or compound fluorescence and quenching.
Structure (SMILES),Potency,"fluorescence change, negative = quenching"
COc1ccc2oc(-c3cccc(NC(=O)c4sc5c([N+](=O)[O-])cccc5c4Cl)c3)nc2c1,"inconclusive [quencher, full curve]",–
O=c1oc2ccccc2cc1-c1cn2cc(Cc3ccc(Br)cc3)sc2n1,"inconclusive [quencher, full curve]",–
COc1cccc(N(C(=O)CS(=O)CC(=O)Nc2ccc(F)cc2)C(C(=O)NC2CCCCC2)c2cccs2)c1 (centres undefined),"inconclusive [falling, partial curve, poor fit]",–
O=C(c1ccccc1)n1nc(-c2ccco2)nc1NCc1ccccc1Cl,"inconclusive [falling, full curve, poor fit]",–
CCc1ccccc1NC(=O)C(C)n1nc(-c2ccc(C)c(C)c2)ccc1=O (centres undefined),"inconclusive [falling, full curve, poor fit]",–
CCn1nc(C)c2c(-c3ccccc3)cc(=O)n(C(C)C(=O)NCc3ccc(C)cc3)c21 (centres undefined),"inconclusive [falling, full curve, poor fit]",–
COc1cc(CNc2ccc3[nH]c(=O)[nH]c3c2)cc(Br)c1OCc1ccc(F)cc1,"inconclusive [falling, partial curve, poor fit]",–
COc1cc(NC(=O)c2ccco2)c(OC)cc1NC(=O)Nc1ccc(Cl)cc1,–,inactive: -4.73%
COCCNc1ncnc2onc(-c3ccc(F)cc3)c12,–,inactive: -4.4%
FC(F)(F)c1ccc(Oc2ccc3cc(Br)ccc3c2)nc1,"inconclusive [falling, partial curve, poor fit]",–
Cc1c(Cl)cccc1NC(=O)C(=O)NCC(c1cccnc1)N1CCN(c2ccccc2)CC1 (centres undefined),"inconclusive [falling, full curve, poor fit]",–
Cc1ccc(-c2noc(CSc3nnc(C)n3-c3ccc(C)cc3)n2)cc1,active: 0.112 µM [quencher],–
COc1ccccc1N1CCN(C(=O)c2cc3c(=O)oc4ccc(C)cc4c3s2)CC1,"inconclusive [falling, full curve, poor fit]",–
O=C(CO/N=C/c1cccc([N+](=O)[O-])c1)NC1CCCCC1,"inconclusive [falling, full curve, poor fit]",–
NC(=O)c1sc2nc(-c3ccco3)ccc2c1N,–,inactive: -22.5%
CCc1nc(Nc2ccc(N3CCN(C(C)=O)CC3)cc2)c2oc3ccccc3c2n1,"inconclusive [quencher, partial curve]",–
O=C(NCCc1ccc(Cl)cc1)c1nc(-c2cccc(F)c2)n2c1CCCCC2,"inconclusive [quencher, full curve]",–
Cc1ccc(CNC(=O)c2sc3nc(-c4ccc(F)cc4)ccc3c2N)cc1,inconclusive [quencher],–
CCN(C(=O)C1CCCN(c2ncnc3onc(-c4ccc(F)cc4)c23)C1)c1ccccc1 (centres undefined),"inconclusive [falling, full curve, poor fit]",–
O=C(O)C1=CC(=C(c2ccc(O)c(C(=O)O)c2)c2ccc(O)c(C(=O)O)c2)C=CC1=O,"inconclusive [quencher, full curve]",–

Structure (SMILES),Potency,"fluorescence change, negative = quenching"
Cc1cc(=O)oc2cc(OCC(=O)OCC(=O)Nc3ccccc3C(C)C)ccc12,"inconclusive [falling, full curve, poor fit]",–
O=C(Cn1ncc2c([nH]c3ccccc32)c1=O)NCc1cccc(Cl)c1,"inconclusive [quencher, full curve]",–
O=c1[nH]c(-[n+]2ccccc2)c(/C=N/N=C(\[O-])c2ccccc2)s1,–,inactive: -1.23%
Cc1cc(C)c2c(=O)cc(C(=O)Nc3ccc(S(=O)(=O)Nc4onc(C)c4C)cc3)oc2c1,active: 126 µM [quencher],–
Cc1ccc2c(=O)cc(C(=O)Nc3c(C(=O)c4ccccc4)oc4ccccc34)oc2c1C,"inconclusive [quencher, full curve]",–
Cn1cc(/C=C2\SC(=S)N(NC(=O)c3ccccc3)C2=O)c2ccccc21,"inconclusive [rising, single point]",–
Cc1cc(C)n(CC(=O)N/N=C/c2cc(Br)cc([N+](=O)[O-])c2O)n1,–,inactive: -1.98%
O=C(NCc1nnc(SCc2ccccc2)n1-c1ccccc1)C12CC3CC(CC(C3)C1)C2,–,inactive: -0.0332%
COc1ccc(CNC(=O)C2CCN(S(=O)(=O)c3ccc4nc5c(c(C(=O)O)c4c3)CC(C)CC5)CC2)cc1 (centres undefined),–,inactive: -29.9%
Cc1ccc(NC(=O)Cn2c(-c3nonc3N)nc3ccccc32)cc1C,"inconclusive [falling, partial curve, poor fit]",–
O=C(CNC(=O)c1ccccc1F)OCc1cc(=O)n2nc(C3CC3)sc2n1,"inconclusive [falling, full curve, poor fit]",–
CC(NC(=O)c1cc2ccccc2o1)c1ccccc1 (centres undefined),"inconclusive [falling, full curve, poor fit]",–
O=C(/C=C/c1ccc(O)c(O)c1)O[C@H](Cc1ccc(O)c(O)c1)C(=O)O,active: 25.1 µM [quencher],–
Cc1ccc(NC(=O)C2CCN(S(=O)(=O)c3ccc4c(c3)CCCN4C(=O)C3CCC3)CC2)cc1,"inconclusive [falling, full curve, poor fit]",–
CCOc1ccc(NC(=O)c2sc3nc4c(cc3c2N)CN(Cc2ccccc2)CC4)cc1,"inconclusive [falling, full curve, poor fit]",–
O=S(=O)(c1ccc(F)cc1)N(Cc1nc(-c2ccccc2)no1)C1CCCCC1,"inconclusive [falling, partial curve, poor fit]",–
Cc1cc(C(=O)COC(=O)Cc2n[nH]c(=O)c3ccccc23)c(C)n1-c1ccc2c(c1)OCCO2,"inconclusive [falling, partial curve, poor fit]",–
CCOc1ccc(NC(=O)Cn2c(=O)n(Cc3ccco3)c(=O)c3ccc(C(=O)NC4CCCC4)cc32)cc1,–,inactive: -1.54%
CC(C)N1CCc2[nH]c(=S)[nH]c(=O)c2C1,"inconclusive [falling, partial curve, poor fit]",–
